Assay results published in PubChem BioAssay AID360 (National Center for Advancing Translational Sciences (NCATS), 2006).
Among all 48,000 compounds or so, about 550 (1.1%) were called active. Inconclusive results (about 4%) are left out. Cut-off read from the data, not from the text of the source: active = potency below about 15 µM; inconclusive = mostly about 16 µM to 33 µM; inactive = weaker than that. Some of the results follow.

These molecules were tested against Lysosomal acid glucosylceramidase (Homo sapiens) (UniProt P04062) (assay: Glucocerebrosidase). Details: purified enzyme, resorufin glucoside fluorescence (screen aimed at inhibitors), 20 min; series mostly up to 77 µM.
Summary of the method: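 Wild-type enzyme at 0.2 nM final in 50mM citric acid/KH2PO4, 10mM sodium taurocholate, 0.01% tween-20, pH 5.9, with resorufin beta-D-glucopyranoside at 30 uM final. Compounds titrated, 20 min at RT, red fluorescence read; AC50 from titration.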
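Note: the screen sought inhibitors.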
Potency is the fitted concentration of half-maximal effect.

UniProt P04062, sequence (P04062 whole entry, looked up): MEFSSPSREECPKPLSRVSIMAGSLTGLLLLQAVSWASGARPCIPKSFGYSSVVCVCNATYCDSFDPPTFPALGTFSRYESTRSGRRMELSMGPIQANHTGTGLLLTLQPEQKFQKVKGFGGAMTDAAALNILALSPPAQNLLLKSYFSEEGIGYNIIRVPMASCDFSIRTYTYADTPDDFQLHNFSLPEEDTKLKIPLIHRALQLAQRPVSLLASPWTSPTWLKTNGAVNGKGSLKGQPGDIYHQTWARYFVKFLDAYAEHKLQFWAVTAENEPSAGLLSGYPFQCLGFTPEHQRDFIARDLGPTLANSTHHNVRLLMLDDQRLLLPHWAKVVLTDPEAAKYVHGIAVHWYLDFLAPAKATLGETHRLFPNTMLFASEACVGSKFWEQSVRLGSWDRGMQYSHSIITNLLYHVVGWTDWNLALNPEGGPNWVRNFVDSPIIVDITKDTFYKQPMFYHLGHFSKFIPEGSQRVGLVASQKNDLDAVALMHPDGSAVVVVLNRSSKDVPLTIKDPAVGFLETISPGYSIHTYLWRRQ

Potency, inactive:
Cc1ccc(CN2C(=O)CCC2C(=O)NCc2ccc3c(c2)OCO3)cc1 (centres undefined) > 76.9 µM
COc1nc(N2CCCCCC2)nc(N2CCCCCC2)n1 > 76.9 µM
CCSc1nnc(NC(=O)c2ccccn2)s1 > 76.9 µM
O=S(=O)(N1CCCCC1)N1CCN(c2ccc(F)cc2)CC1 > 76.9 µM
COc1ccc(C(=O)NCCc2nnc(SCC(=O)Nc3ccccc3)n2C)cc1 > 76.9 µM
COCc1nnc(NC(=O)CCCCCN2C(=O)c3ccccc3C2=O)s1 > 76.9 µM
CCOc1ccc(N2C(=O)CC(N3CCC(NC(=O)Nc4ccccc4)CC3)C2=O)cc1 (centres undefined) > 76.9 µM
CCOC(=O)NC(=O)COC(=O)Cc1cc(OC)c(OC)c(OC)c1 > 76.9 µM
CCOc1ccccc1OCCCC(=O)Nc1ccc(OC)nc1 > 76.9 µM
O=C(NCc1ccc2c(c1)OCO2)c1cccs1 > 76.9 µM
COCC(=O)N(Cc1ccc(OC)cc1)Cc1nc2ccccc2c(=O)[nH]1 > 76.9 µM
CCN(CC)CCOc1cc2c(nn1)Oc1ccccc1N2C > 76.9 µM
COc1ccccc1C1N(c2ccc(F)cc2)C(=O)C2CCCN21 (centres undefined) > 76.9 µM
CCc1sc(NC(=O)CN2CCOCC2)nc1-c1ccccc1 > 76.9 µM
CCOC(=O)Cn1cnc2c(nnn2-c2ccc(C)cc2)c1=O > 76.9 µM
COc1ccc(-c2nnc(N(C)C(=O)c3cccnc3)s2)cc1 > 76.9 µM
COc1ccc(NC(=O)c2cc(OC)c(OC)cc2OC)c(S(=O)(=O)N2CCOCC2)c1 > 76.9 µM
CCOC(=O)c1[nH]c(C)c(C(=O)NCCCOC(C)C)c1C > 76.9 µM
COCCn1nnnc1C(c1ccc2ncccc2c1)N1CCc2ccccc21 (centres undefined) > 76.9 µM
O=C(CCN1C(=O)c2ccccc2S1(=O)=O)Nc1ccc2c(c1)OCCO2 > 76.9 µM
CCOC(=O)C1CCN(C(=O)C2CCN(S(=O)(=O)N3CCCC3)CC2)CC1 > 76.9 µM
c1cc(C(c2nnnn2C2CCCC2)N2CCOCC2)ccn1 (centres undefined) > 76.9 µM
C=CCn1nnnc1SCC(=O)Nc1cccc(OC)c1 > 76.9 µM
CCCn1c(=O)c2ccccc2n2c(SCCOc3ccc(OC)cc3)nnc12 > 76.9 µM
COc1cccc(NC(=O)N2CCCC2C(=O)NCC(C)C)c1 (centres undefined) > 76.9 µM
CCn1c(=O)cc(OCC(=O)NCc2cccnc2)c2ccccc21 > 76.9 µM
CC(C)(C)C1=C[C@@H](CO)C[C@@H](CO)C1 > 76.9 µM
Cc1ccc(CNC(=O)CSc2nc(C)cc(C)c2C#N)cc1 > 76.9 µM
CCC(O)CNc1nc(-n2nc(C)cc2C)nc2sc3c(c12)CCCC3 (centres undefined) > 76.9 µM
COC(=O)C(NS(C)(=O)=O)(c1c(C)[nH]c2ccccc12)C(F)(F)F (centres undefined) > 76.9 µM
O=C(NCc1cccs1)c1ccc(Cl)s1 > 76.9 µM
CN(C)c1ccc(-n2cc3c(=O)n(C)c(=O)n(C)c3c2)cc1 > 76.9 µM
CCN(CC)C(=O)CSc1nnc(-c2cc(OC)cc(OC)c2)o1 > 76.9 µM
Cn1c(C(C#N)C2=C(Cl)C(=O)N(c3ccccc3)C2=O)nc2ccccc21 (centres undefined)
CN1CCN(CCCNC(=O)Nc2cccc3ccccc23)CC1 > 76.9 µM
Cc1cc(NC(=O)C(C)C)ncc1NC(=O)Cc1ccccc1 > 76.9 µM
Nc1nc(-c2cccnc2)nn1C(=O)Cc1ccccc1 > 76.9 µM
Cc1nc(NCC2CCCO2)c2nnn(Cc3ccccc3Cl)c2n1 (centres undefined) > 76.9 µM
CCn1cc(C(=O)NCCCN2CCC(C)CC2)c(=O)c2cc(S(=O)(=O)N3CCCC3)ccc21 > 76.9 µM
Cn1c(=O)cc(SCC(=O)NCCCN2CCOCC2)c2ccc(Cl)cc21 > 76.9 µM
CCOC(=O)c1cc(OC(=O)c2cccs2)n(-c2ccccc2)n1 > 76.9 µM
CCOC(=O)c1oc2nc(C(C)C)c3c(c2c1N)CC(C)(C)OC3 > 76.9 µM
CSc1nsc(SCC(=O)N2CCc3ccccc32)n1 > 76.9 µM
COc1ccc2[nH]c(=S)[nH]c2c1 > 76.9 µM
O=C(NCc1ccccn1)c1c(O)c2c([nH]c1=O)CCCC2 > 76.9 µM
CCn1cc(Br)c(C(=O)Nc2cccc(SC)c2)n1 > 76.9 µM
CCOC(=O)N1CCN(S(=O)(=O)c2ccc(OCC(=O)OC)cc2)CC1 > 76.9 µM
O=C(Nc1ccccc1)N1CCC(c2nc(-c3ccc(S(=O)(=O)N4CCOCC4)cc3)no2)CC1 > 76.9 µM
CN(CC(=O)O)S(=O)(=O)c1cc(Cl)ccc1Cl > 76.9 µM
Cc1ccccc1NC(=O)N1C2CCCC1CC(NC(=O)C(C)(C)C)C2 (centres undefined) > 76.9 µM
COC(=O)CNc1n[nH]c(=S)[nH]c1=O > 76.9 µM
CCOC(=O)c1cnc(SCC(=O)c2ccc3c(c2)OCCO3)nc1N > 76.9 µM
O=C(CN1C(=O)C2C3C=CC(C3)C2C1=O)N1CC=C(c2ccccc2)CC1 (centres undefined) > 76.9 µM
O=C1CCCN1c1ccc(CNS(=O)(=O)c2ccc(F)cc2)cc1 > 76.9 µM
Fc1ccccc1N1CCN(Cc2nc(-c3ccc(Cl)cc3Cl)no2)CC1 > 76.9 µM
CCCCN(CC)Cc1c(C)[nH]c2ccccc2c1=O > 76.9 µM
CCCOc1ccc2c(C)c(CC(=O)OC)c(=O)oc2c1 > 76.9 µM
CC1CC(C)CN(CCCNC(=O)C2CCC(=O)N2C2CCCC2)C1 (centres undefined) > 76.9 µM
O=C1CCC(C(=O)N(c2ccccc2)C2(C(=O)NC3CCCCC3)CCCCC2)N1 (centres undefined) > 76.9 µM
